The term % Inhibition denotes the drop in the measured response relative to a control, in per cent.

The structures appear in SMILES notation. Screen size: about 150,000 compounds; about 540 (0.36%) showed an effect of 50% or more. The list shows a part of the results.

The assay relates to Plasmodium falciparum. Briefly: Primary screen in NF54 nanoGlo assay, in single point, at 2uM, 72h; a lower Z score goes with more inhibition. Format: functional, Erythrocyte. The note with it: timepoint 72 hour.
Take `C[C@H](Nc1cccc(N2CCCC2=O)c1)C(=O)Nc1ccc2ccccc2c1`: the “% Inhibition” value is on record as -28% and the Z score was found to be 3.34.

As to `CC(C)C[C@H]1CC(=O)N(Cc2nccn2C(C)C)C1`, the “% Inhibition” value was -2% and the Z score is 0.36.

As to `COc1ccc(C2CN(S(=O)(=O)c3ccccc3)CC2C(=O)NCc2ccccc2)c(OC)c1` (stereo unspecified), the “% Inhibition” value is listed as -23% and the Z score is on record as 2.41.

As for `CCC[C@H]1CCN(C(=O)c2coc(COc3ccc(F)cc3Cl)n2)C1`, the “% Inhibition” value is listed as -18% and the Z score was 2.25.

As for `CCCCc1nn(CC(=O)N2CCC[C@H](C#N)C2)c(=O)n1Cc1ccccc1`, the “% Inhibition” value is reported as -17% and the Z score is on record as 1.63.

In the case of `NC(=O)CC[C@@H]1N[C@@]2(C(=O)Nc3ccc(Cl)cc32)[C@H]2C(=O)N(CC3CCCO3)C(=O)[C@@H]12` (stereo partly specified), the “% Inhibition” value is reported as 28% and the Z score is -3.22.

For the compound `Cc1cc(C(=O)N2CCC(Oc3nc4ccccc4s3)CC2)on1`, the “% Inhibition” value is -11% and the Z score was 1.66.

Turning to `COc1ccccc1N1CCN(Cc2nc(C(=O)NCCN3CCOCC3)co2)CC1`, the “% Inhibition” value is -9% and the Z score was determined as 1.08.

With `CN(C)C1CCN(C(=O)Nc2ccc(-c3ccccc3F)nn2)CC1`, the “% Inhibition” value is reported as -17% and the Z score is 1.95.

Regarding `CC[C@H](NC(=O)Cc1ccccn1)c1cccs1`, the “% Inhibition” value was -5% and the Z score was 0.63.

Regarding `CC(C)c1nc(-c2noc(-c3ccsn3)n2)cs1`, the “% Inhibition” value was -19% and the Z score came out at 3.72.

With `COCCN(CC(C)C)C(=O)Nc1cc(Cl)ccc1C`, the “% Inhibition” value was -15% and the Z score is reported as 1.88.

`CC(C)NCc1cc2c(nc1O)CCCC2`: the “% Inhibition” value turned out to be 0% and the Z score was -0.01.

Consider `COc1cc(C#N)ccc1Oc1ccc(NC(=O)NC[C@@]2(C)CC2(F)F)cc1`, for which the “% Inhibition” value is recorded as -8% and the Z score is given as 1.24.

As to `O=C(CCc1ccc2[nH]ccc2c1)N[C@H](CO)CN1CCOCC1`, the “% Inhibition” value is on record as -5% and the Z score came out at 0.56.

Consider `COc1ccc(-c2noc(-c3cccnc3N(C)C)n2)cc1`, for which the “% Inhibition” value is listed as -4% and the Z score is 0.58.

Turning to `CC(C)CCn1ccc(NCc2nc(-c3cnn(C)c3)cs2)n1`, the “% Inhibition” value is -5% and the Z score was found to be 0.59.

As to `CN=C(NCCCn1cc(C)cn1)N[C@@H](C)c1ccccc1OC`, the “% Inhibition” value is reported as 13% and the Z score is given as -1.43.

As to `C[C@H](NC(=O)Nc1ccc(COC2CCCC2)cc1)C(=O)N(C)C`, the “% Inhibition” value was -3% and the Z score came to 0.53.

`C[C@H](NS(=O)(=O)Cc1ccccc1)C(=O)NCc1cscn1`: the “% Inhibition” value is reported as 2% and the Z score is on record as -0.22.

As for `C#CCN1CCN(CC#C)[C@H](C(=O)N(C)C)C1`, the “% Inhibition” value came to 29% and the Z score is on record as -3.25.

In the case of `CCOc1cc(C(=O)N(C)C)ccc1NCc1cc(C#N)n(C)c1C`, the “% Inhibition” value is listed as -13% and the Z score is given as 1.86.

Regarding `CC(C)n1cc(CN2C[C@@H](Oc3ccccc3)C[C@H]2C(N)=O)cn1`, the “% Inhibition” value is -11% and the Z score turned out to be 1.51.

Turning to `CC[C@](C)(NC(=O)Nc1nc(COC)cs1)c1nc(C)cs1`, the “% Inhibition” value is on record as -8% and the Z score is on record as 0.73.

`Fc1cccc2c(N3CC(NC4CCOCC4)C3)ncnc12`: the “% Inhibition” value was found to be 7% and the Z score is listed as -1.14.

With `CCc1noc(C2CCC(NCc3ncccc3O)CC2)n1` (stereo unspecified), the “% Inhibition” value is listed as -4% and the Z score is 0.4.

Turning to `Cc1ccc(S(=O)(=O)N2CCN(CC(C)C)C(=O)C2)o1`, the “% Inhibition” value came out at 27% and the Z score was -3.08.

In the case of `CC(C)=CCN[C@@H](C)c1ccccc1Br`, the “% Inhibition” value was -10% and the Z score came to 1.1.

For the compound `COCc1cc(=O)[nH]c2cc(NC(=O)c3ccco3)ccc12`, the “% Inhibition” value is -24% and the Z score was 3.46.

`CCCCN(C)S(=O)(=O)N1CCC2(CC1)C[C@@H]2c1nc(-c2cccc(Cl)c2)no1`: the “% Inhibition” value is listed as -10% and the Z score is 1.16.

Consider `Cc1ccc(N2CCN(CCn3cnnc3C)[C@@H](C)C2)cc1`, for which the “% Inhibition” value was -14% and the Z score is 1.58.

`Cc1noc(C)c1CN1C(=O)[C@@H]2CC[C@H]1CN(C(=O)c1ccn(C)n1)C2`: the “% Inhibition” value is listed as -4% and the Z score is given as 0.48.

With `COCCOC[C@H]1CCN(C(=O)c2cc(C)oc2C)C1`, the “% Inhibition” value is -13% and the Z score stood at 1.98.

On to `CCc1cc(OC)ccc1CN(C)[C@@H]1COC[C@H]1O`, for which the “% Inhibition” value amounted to 2% and the Z score is reported as -0.24.

For the compound `Cc1cccc(C)c1OCC(O)CN1CCCC(Cn2cncn2)C1` (stereo unspecified), the “% Inhibition” value was -6% and the Z score came out at 0.79.

As to `COC(=O)CCNC(=O)c1ccc(NCCn2ccnc2)cc1`, the “% Inhibition” value is -10% and the Z score amounted to 1.98.

Take `CC(C)(C)OC(=O)NC1C[C@H]2COC[C@@H](C1)C2N` (stereo partly specified): the “% Inhibition” value was -11% and the Z score was found to be 1.23.

Take `Cc1cc(C(F)(F)F)n(C[C@@H](C)CNC(=O)N2CCNC(=O)C2)n1`: the “% Inhibition” value is reported as -9% and the Z score is on record as 1.25.

Take `Cc1c(CCC(=O)N2CC3(CCCC3)c3cccc(Cl)c32)cnn1C`: the “% Inhibition” value is -7% and the Z score came out at 1.32.

`COc1cc(CC(=O)N(C)c2cccnc2OC)ccc1Cl`: the “% Inhibition” value amounted to 4% and the Z score is -0.56.

As for `CCC1(CC)C(OC)CC1N(C)c1cncc(C(N)=O)n1` (stereo unspecified), the “% Inhibition” value is on record as -5% and the Z score is given as 0.71.

`CC(=O)N1CC[C@H](NC(=O)c2ncccc2Br)C1`: the “% Inhibition” value worked out at 22% and the Z score is given as -2.54.

Consider `O[C@@]1(C(F)F)CCN(Cc2ccco2)C1`, for which the “% Inhibition” value was determined as 6% and the Z score was -1.08.

These data come from ChEMBL document CHEMBL4888484, “Replenishing the malaria drug discovery pipeline: Screening and hit evaluation of the MMV Hit Generation Library 1 (HGL1) against asexual blood stage Plasmodium falciparum ,using a nano luciferase reporter read-out” (2022).
